In all, about 310,000 compounds went through this assay and about 18,000 (5.8%) were called active. The shares of active, inactive and inconclusive entries below differ from those in the screen. The call rests on the fitted dose curve; in most records, active means well fitted inhibition curve with a large enough effect; inconclusive means small, poorly fitted or top-dose-only effect, or another doubt; inactive means no such curve, though single readings can be large or run the other way. No potency is given beside an inconclusive call; the fits are too rough.
Test: Primary qHTS for delayed death inhibitors of the malarial parasite plastid, 48 hour incubation
Conditions: P. falciparum luciferase growth in erythrocytes; series mostly up to 28.7 µM; activity change, negative = inhibition: at the top concentration
Method in brief: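 Compounds are pin-transferred into medium, infected erythrocytes (2% hematocrit, 0.1% parasitemia final) are added, and plates sit one parasite generation at 37 C in 5% CO2. Detection reagent is then added and luminescence measured.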
On the % scale 0 is the no-effect control and ±100 the full control effect; potency means the concentration at half of the fitted maximal effect; tags describe the fitted curve by direction and shape.

| Structure (SMILES) | Potency | activity change, negative = inhibition |
| --- | --- | --- |
| CC(C)CCNC(=O)C(c1ccco1)N(Cc1ccccc1)C(=O)c1snc(C(N)=O)c1N (centres undefined) | inconclusive [inhibitor, single point] | – |
| Cc1ccc(-n2cc(C(C)(C)C)[nH]c2=S)cc1 | inconclusive [inhibitor, single point] | – |
| O=C(N/N=C/c1c[nH]c2ccccc12)C1CC1(c1ccccc1)c1ccccc1 (centres undefined) | inconclusive [inhibitor, single point] | – |
| O=C1CCC(=O)N1CCC(c1ccc(F)cc1)c1ccco1 (centres undefined) | inconclusive [inhibitor, single point] | – |
| C=CCn1cnc2c(c1=O)c1nc3ccccc3nc1n2-c1ccc(C)cc1 | – | inactive: -16.4% |
| COc1ccc(-c2csc3ncnc(N4CCN(S(=O)(=O)c5ccc(C(C)=O)cc5)CC4)c23)cc1 | active: 1.65 µM | – |
| CC(C)(Oc1ccc(Cl)cc1)C(=O)NCCN1C(=O)S/C(=C/c2cccnc2)C1=O | inconclusive [inhibitor, partial curve, poor fit] | – |
| O=C(CSc1ccc(-c2cccc([N+](=O)[O-])c2)nn1)N1CCCC1 | – | inactive: -25.7% |
| CC1(C)CC(c2nc(-c3ccc(Cl)cc3)cs2)CCS1 (centres undefined) | – | inactive: 8.83% |
| COc1ccc(S(=O)(=O)N2CCCN(C)CC2)cc1 | – | inactive: 37.4% |
| O=C(CSc1nc(N2CCCCC2)nc(N2CCCCC2)n1)c1ccccc1 | inconclusive [inhibitor, single point] | – |
| COCCn1c(=NC(=O)CCS(=O)(=O)c2ccccc2)sc2cc(C)ccc21 | – | inactive: 93.3% |
| CC(C(=O)NCc1ccccc1)n1cc([N+](=O)[O-])cn1 (centres undefined) | – | inactive: 11.8% |
| CCC1(c2ccccc2)NC(=O)N(CC(=O)Nc2cc(Cl)ccc2N2CCOCC2)C1=O (centres undefined) | inconclusive [inhibitor, partial curve] | – |
| CSc1nc(SCCN(C)C)c2c3c(sc2n1)COC(C)(C)C3 | inconclusive [inhibitor, single point] | – |
| NC(=O)c1ccsc1NC(=O)c1nc(-c2ccccc2)n(-c2ccccc2)n1 | active: 7.38 µM | – |
| O=C(N/N=C/c1cc2ccccc2nc1Cl)[C@H]1C[C@@H]1c1ccccc1 | active: 2.62 µM | – |
| COC(=O)c1ccc(CS(=O)(=O)c2ccccc2C)o1 | – | inactive: -26.9% |
| O=C(Cn1c2ccc(F)cc2c2nc3n(c(=O)c21)CCS3)N1CCCC1 | – | inactive: -12.9% |
| CC(C)c1ccccc1NC(=O)COc1ccc(C(=O)NCCc2ccccc2)cc1 | inconclusive [inhibitor, single point] | – |
| O=C(O)CCCN1C(=O)/C(=C\c2ccc(-c3nc4ccccc4s3)o2)SC1=S | inconclusive [inhibitor, partial curve, poor fit] | – |
| O=C(Nc1ccc(Br)cc1)Nc1ccccc1F | – | inactive: 147% |
| COc1ccc(-c2cc(C(=O)NN)n(-c3ccccc3)n2)cc1 | – | inactive: 25.3% |
| Cc1ccc(S(=O)(=O)N2CCN(CC(=O)N3CCOCC3)CC2)cc1 | inconclusive [inhibitor, partial curve, poor fit] | – |
| CC(CCc1ccccc1)NC(=O)C1CCN(S(=O)(=O)N2CCCCC2)CC1 (centres undefined) | inconclusive [inhibitor, partial curve, poor fit] | – |

| Structure (SMILES) | Potency | activity change, negative = inhibition |
| --- | --- | --- |
| COc1cccc(/C=N/n2c(N)nc3ccccc32)c1OC | inconclusive [inhibitor, single point] | – |
| Cc1ccc2nc(/C(C#N)=C\c3ccc(N4CCOCC4)o3)[nH]c2c1 | – | inactive: 31.9% |
| CN(C)c1ccc(C(CNC(=O)c2ccccc2F)c2c[nH]c3ccccc23)cc1 (centres undefined) | inconclusive [inhibitor, single point] | – |
| O=C(N/N=C\c1cc2c(cc1[N+](=O)[O-])OCO2)c1cccs1 | – | inactive: 5.02% |
| COc1ccc(CNC(=O)CN2C(=O)NC(C)(c3cccc4ccccc34)C2=O)cc1OC (centres undefined) | inconclusive [inhibitor, partial curve, poor fit] | – |
| CN(CC(O)CN1CCOCC1)S(=O)(=O)O (centres undefined) | inconclusive [inhibitor, full curve, poor fit] | – |
| CCSc1nc2sc3c(c2c(=O)n1-c1ccccc1C)CCN(C)C3 | active: 5.22 µM | – |
| Cc1nc2c3cnn(-c4ccccc4)c3ncn2n1 | inconclusive [inhibitor, single point] | – |
| CC(C)(C)c1[nH]nc2c1C(c1cccnc1)C(C#N)=C(N)O2 (centres undefined) | – | inactive: -10.4% |
| CCC(=O)Nc1ccc(C(=O)CSc2nc(N)cc(N)n2)cc1 | – | inactive: 114% |
| O/C(=C\c1nc2ccccc2[nH]1)c1cccs1 | inconclusive [inhibitor, partial curve] | – |
| CCN1CCN(C(=O)C(C)Nc2cc(Cl)c(OC)cc2OC)CC1 (centres undefined) | – | inactive: -19.2% |
| CCCC(=O)N(Cc1cc(=O)[nH]c2ccccc12)c1cccc(C)c1 | active: 11.7 µM | – |
| COc1ccc(Cn2c(=S)[nH]c3cc(C(=O)NCCCN4CCOCC4)ccc3c2=O)cc1 | inconclusive [inhibitor, full curve] | – |
| CCN1C(=O)c2n[nH]c(C(=O)OC)c2C1=O | inconclusive [inhibitor, partial curve, poor fit] | – |
| Cc1ccc(C(=O)Nc2ccccc2C(=O)NCc2ccco2)cc1S(=O)(=O)N1CCCCC1 | active: 6.57 µM | – |
| CC(C)(C)c1ccc(S(=O)(=O)N2CCN(C3CCCC3)CC2)cc1 | inconclusive [inhibitor, single point] | – |
| Cc1ccc(C(C)C)c(OCc2nnc(SCC(=O)Nc3nccs3)n2C)c1 | inconclusive [inhibitor, partial curve] | – |
| Cc1cc(C(=O)NC2CCCc3c2cnn3-c2ccc(C)c(C)c2)nc(C)n1 (centres undefined) | inconclusive [inhibitor, full curve, poor fit] | – |
| Cc1cc(N=Nc2ccccc2)c(NCC(O)C(O)C(O)CO)cc1C (centres undefined) | inconclusive [inhibitor, single point] | – |
| CCCN(C(=O)COC(=O)CC1CCCCC1)c1c(N)n(Cc2ccccc2)c(=O)[nH]c1=O | active: 8.28 µM | – |
| CC1CC(C)CN(CCCNC(=O)Cn2ncc3c([nH]c4ccccc43)c2=O)C1 (centres undefined) | – | inactive: 6.15% |
| COc1cc(NC(=O)c2ccccc2Cl)ccc1NC(=O)c1ccco1 | – | inactive: 123% |
| COc1ccc(/C=C2/CC/C(=C\c3ccc(OC)c(OC)c3OC)C2=O)c(OC)c1OC | inconclusive [inhibitor, single point] | – |
| COc1ccnc(Oc2cccc(C(F)(F)F)c2)c1C(=O)N/C=N/OCc1ccccc1F | inconclusive [inhibitor, single point] | – |

| Structure (SMILES) | Potency | activity change, negative = inhibition |
| --- | --- | --- |
| CC1Sc2ccc(C(=O)Nc3ccc(S(=O)(=O)N(C)C)cc3)cc2NC1=O (centres undefined) | inconclusive [inhibitor, partial curve] | – |
| Cc1cc(NC(=O)C2Oc3ccccc3OC2C)no1 (centres undefined) | inconclusive [inhibitor, partial curve] | – |
| O=C(Nc1ccc(Oc2cccc(C(F)(F)F)c2)nc1)c1ccco1 | inconclusive [inhibitor, partial curve, poor fit] | – |
| Cc1ccc(N2CC(C(=O)Nc3ncc([N+](=O)[O-])s3)CC2=O)cc1 (centres undefined) | – | inactive: 12.2% |
| CCOc1ccc(OCCCC(=O)N(CC)CC(=O)Nc2c(F)cccc2F)cc1 | inconclusive [inhibitor, single point] | – |
| CC(C)(C)c1cc(CN(CCO)CCO)cc(C(C)(C)C)c1O | – | inactive: 12.7% |
| Nc1ncc2c(n1)CCN(c1ccc([N+](=O)[O-])cc1)C2 | inconclusive [inhibitor, full curve, poor fit] | – |
| O=C(Cn1ncc2c3ccccc3n(Cc3ccccc3)c2c1=O)NCc1ccco1 | inconclusive [inhibitor, partial curve, poor fit] | – |
| Cc1ccc2c(Cl)cc(Cl)c(OCC(=O)Nc3ccc(C)c(S(=O)(=O)N(C)C)c3)c2n1 | – | inactive: -14.2% |
| C[C@@H](NC(=O)[C@@H]1Cc2ccccc2CN1C(=O)OC(C)(C)C)C(=O)NCc1ccco1 | inconclusive [inhibitor, single point] | – |
| COc1ccc(Cl)cc1NC(=O)C(C)N(C)Cc1cccc(Cl)c1Cl (centres undefined) | active: 11.7 µM | – |
| Cc1ccc(-c2ccc(C(=O)NCCCNC(=O)c3cnccn3)o2)cc1Cl | inconclusive [inhibitor, partial curve] | – |
| Cc1cc(NCc2ccco2)n2c(nc3ccccc32)c1C#N | active: 4.15 µM | – |
| N#CCC(=O)Nc1ccc(C(=O)NCC(c2ccco2)N2CCCCC2)cc1 (centres undefined) | inconclusive [inhibitor, partial curve, poor fit] | – |
| COCCCNC(=O)C(C#N)c1nc2ccccc2nc1N1CCCC1 (centres undefined) | active: 8.28 µM | – |
| Cc1ccc(-c2nc3ccsc3c(=O)[nH]2)cc1 | active: 2.08 µM | – |
| O=C(CSc1nncn1-c1cccnc1)N(c1ccccc1)c1ccccc1 | – | inactive: 6.13% |
| Cc1cc([N+](=O)[O-])ccc1NCc1ccc2ccccc2c1 | – | inactive: -2.59% |
| CC1C(=O)N2CCCc3cc(NC(=O)C(=O)NCCCc4ccccc4)cc1c32 (centres undefined) | active: 11.7 µM | – |
| CC(=O)OC(C(=O)Nc1ccccc1)C(C)S(=O)(=O)c1ccccc1 (centres undefined) | inconclusive [inhibitor, partial curve, poor fit] | – |
| Cc1c(-c2ccccc2)nc2ccccc2c1C(=O)Nc1ccncc1 | active: 1.65 µM | – |
| COC(=O)c1ccc(C[n+]2ccccc2)cc1 | – | inactive: 11.4% |
| CC/C(=N/Nc1ccccc1)c1cnnc(SC)n1 | inconclusive [inhibitor, single point] | – |
| CCn1c(=O)cc(SCC(=O)NCCCN2CCN(c3ccc(F)cc3)CC2)c2ccccc21 | inconclusive [inhibitor, partial curve, poor fit] | – |

Source: PubChem BioAssay AID504832 (National Center for Advancing Translational Sciences (NCATS), 2011)
